# Source: the supplement of paper PMC8728848
# The other results are listed elsewhere or left out.
# B1: PX14343H-pdi-506-26-506 (Parabacteroides distasonis) (protein)
# chain: QPTGTMTTDSKLTSKESALALTNSAYLKNTVFNKMTPGWGCNTILLLEYMTGKATSENSQSNYKDFQDLLVSDRSLYIEDWWQDCYAGIANCNLALQKLGEFENLDASLVNGYMAEVKFMRALYYFYLVRIFGDVPKITTVQSELGELQVSRAPVKEIYDEIIIPDLLEAEQSDLAFSDHTGRVSMGAVKALLADVYLTYAGYPLQGGKSYYAESAKRSLEVIKSNEYTLFTDYESLRLPSQNNKGEFIYQVQFSLNKRHNESVRIFLPSRSGISAYDLEYGSLIPTKEFVESFEKGDKRTEEKQYFFTNYKGHPSKFSPGAAELEFMDLNGYYIYKFFDQVAVDNTAKSDLNWSVYRYTDVLLMYAEAQVNADGTPNQQSIDIVNQIRGRAGLAPFKQTNASAFLEEVWDQRYFDLCYENKMWFDMLRTRKIRDDKSGEYVDFIGYKTNWGKVYTETQLLFPIPLSERQANPNLTQNQGY
# Legend:
# Assay in all cases: glycan array binding signal (z-score within array); higher = stronger binding
# Conditions in all cases: glycan notation: IUPAC condensed, linker removed
# [1] = biological target: Gal(a1-3)Gal(b1-4)GlcNAc(b1-2)Man
# Procedure, shortened: (§1)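 From the Consortium for Functional Glycomics database, 3228 arrays were curated, keeping only those whose protein sequence was available. Binding is given as a within-array Z-score averaged across arrays sharing a protein sequence and across linkers. Negative Z-scores can be read as non-binding.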
# [2] = biological target: Gal(a1-3)Gal(b1-4)GlcNAc(b1-2)Man(a1-3)[Gal(a1-3)Gal(b1-4)GlcNAc(b1-2)Man(a1-6)]Man(b1-4)GlcNAc(b1-4)GlcNAc
# Procedure, shortened: as §1
# [3] = biological target: Gal(a1-3)Gal(b1-4)GlcNAc(b1-3)GalNAc
# Procedure, shortened: as §1
# [4] = biological target: Gal(a1-3)Gal(b1-4)GlcNAc(b1-6)GalNAc
# Procedure, shortened: as §1
# [5] = biological target: Gal(a1-3)Gal(b1-4)[Fuc(a1-3)]GlcNAc
# Procedure, shortened: as §1
# [6] = biological target: Gal(a1-3)Gal(b1-4)[Fuc(a1-3)]GlcNAc(b1-2)Man(a1-3)[Gal(a1-3)Gal(b1-4)[Fuc(a1-3)]GlcNAc(b1-2)Man(a1-6)]Man(b1-4)GlcNAc(b1-4)GlcNAc
# Procedure, shortened: as §1
# [7] = biological target: Gal(a1-3)GalNAc
# Procedure, shortened: as §1
# [8] = biological target: Gal(a1-3)[Gal(a1-4)]Gal(b1-4)GlcNAc
# Procedure, shortened: as §1
# [9] = biological target: Gal(a1-4)Gal(b1-3)GlcNAc(b1-2)Man(a1-3)[Gal(a1-4)Gal(b1-3)GlcNAc(b1-2)Man(a1-6)]Man(b1-4)GlcNAc(b1-4)GlcNAc
# Procedure, shortened: as §1
# [10] = biological target: Gal(a1-4)Gal(b1-4)Glc
# Procedure, shortened: as §1
# [11] = biological target: Gal(a1-4)Gal(b1-4)GlcNAc
# Procedure, shortened: as §1
# [12] = biological target: Gal(a1-4)Gal(b1-4)GlcNAc(b1-2)Man(a1-3)[Gal(a1-4)Gal(b1-4)GlcNAc(b1-2)Man(a1-6)]Man(b1-4)GlcNAc(b1-4)GlcNAc
# Procedure, shortened: as §1
# [13] = biological target: Gal(a1-4)Gal(b1-4)GlcNAc(b1-3)Gal(b1-4)Glc
# Procedure, shortened: as §1
# [14] = biological target: Gal(a1-4)GlcNAc
# Procedure, shortened: as §1
# [15] = biological target: Gal(a1-6)Glc
# Procedure, shortened: as §1
# [16] = biological target: Gal(b1-2)Gal
# Procedure, shortened: as §1
# [17] = biological target: Gal(b1-3)Gal
# Procedure, shortened: as §1
# [18] = biological target: Gal(b1-3)Gal(b1-4)GlcNAc
# Procedure, shortened: as §1
# [19] = biological target: Gal(b1-3)GalNAc
# Procedure, shortened: as §1
# [20] = biological target: Gal(b1-3)GalNAc(a1-3)[Fuc(a1-2)]Gal(b1-4)Glc
# Procedure, shortened: as §1
# [21] = biological target: Gal(b1-3)GalNAc(a1-3)[Fuc(a1-2)]Gal(b1-4)GlcNAc
# Procedure, shortened: as §1
# [22] = biological target: Gal(b1-3)GalNAc(b1-3)Gal
# Procedure, shortened: as §1
# [23] = biological target: Gal(b1-3)GalNAc(b1-3)Gal(a1-4)Gal(b1-4)Glc
# Procedure, shortened: as §1
# [24] = biological target: Gal(b1-3)GalNAc(b1-4)Gal(b1-4)Glc
# Procedure, shortened: as §1
# [25] = biological target: Gal(b1-3)GalNAc(b1-4)[Neu5Ac(a2-3)]Gal(b1-4)Glc
# Procedure, shortened: as §1
# [26] = biological target: Gal(b1-3)GlcNAc
# Procedure, shortened: as §1
# [27] = biological target: Gal(b1-3)GlcNAc(a1-3)Gal(b1-4)GlcNAc
# Procedure, shortened: as §1
# [28] = biological target: Gal(b1-3)GlcNAc(a1-6)Gal(b1-4)GlcNAc
# Procedure, shortened: as §1
# [29] = biological target: Gal(b1-3)GlcNAc(b1-2)Man
# Procedure, shortened: as §1
# [30] = biological target: Gal(b1-3)GlcNAc(b1-2)Man(a1-3)[Gal(b1-3)GlcNAc(b1-2)Man(a1-6)]Man(b1-4)GlcNAc(b1-4)GlcNAc
# Procedure, shortened: as §1
# [31] = biological target: Gal(b1-3)GlcNAc(b1-2)Man(a1-3)[Gal(b1-3)GlcNAc(b1-2)Man(a1-6)]Man(b1-4)GlcNAc(b1-4)[Fuc(a1-6)]GlcNAc
# Procedure, shortened: as §1
# [32] = biological target: Gal(b1-3)GlcNAc(b1-2)Man(a1-3)[GlcNAc(b1-4)][Gal(b1-3)GlcNAc(b1-2)Man(a1-6)]Man(b1-4)GlcNAc(b1-4)GlcNAc
# Procedure, shortened: as §1
# [33] = biological target: Gal(b1-3)GlcNAc(b1-2)[Gal(b1-3)GlcNAc(b1-6)]Man(a1-6)[Gal(b1-3)GlcNAc(b1-2)Man(a1-3)]Man(b1-4)GlcNAc(b1-4)GlcNAc
# Procedure, shortened: as §1
# [34] = biological target: Gal(b1-3)GlcNAc(b1-3)Gal(b1-3)GlcNAc
# Procedure, shortened: as §1
# [35] = biological target: Gal(b1-3)GlcNAc(b1-3)Gal(b1-4)Glc
# Procedure, shortened: as §1
# [36] = biological target: Gal(b1-3)GlcNAc(b1-3)Gal(b1-4)GlcNAc
# Procedure, shortened: as §1
# [37] = biological target: Gal(b1-3)GlcNAc(b1-3)Gal(b1-4)GlcNAc(b1-2)Man(a1-3)[Gal(b1-3)GlcNAc(b1-3)Gal(b1-4)GlcNAc(b1-2)Man(a1-6)]Man(b1-4)GlcNAc(b1-4)GlcNAc
# Procedure, shortened: as §1
binder,measurement,setting,value
B1,glycan array binding signal (z-score),[1],-0.378
same,glycan array binding signal (z-score),[2],6.89
same,glycan array binding signal (z-score),[3],0.163
same,glycan array binding signal (z-score),[4],-0.417
same,glycan array binding signal (z-score),[5],-0.014
same,glycan array binding signal (z-score),[6],0.009
same,glycan array binding signal (z-score),[7],-0.291
same,glycan array binding signal (z-score),[8],1.31
same,glycan array binding signal (z-score),[9],0.979
same,glycan array binding signal (z-score),[10],-0.401
same,glycan array binding signal (z-score),[11],-0.381
same,glycan array binding signal (z-score),[12],0.705
same,glycan array binding signal (z-score),[13],-0.472
same,glycan array binding signal (z-score),[14],-0.272
same,glycan array binding signal (z-score),[15],-0.374
same,glycan array binding signal (z-score),[16],-0.367
same,glycan array binding signal (z-score),[17],-0.461
same,glycan array binding signal (z-score),[18],-0.196
same,glycan array binding signal (z-score),[19],-0.263
same,glycan array binding signal (z-score),[20],-0.478
same,glycan array binding signal (z-score),[21],-0.451
same,glycan array binding signal (z-score),[22],-0.438
same,glycan array binding signal (z-score),[23],-0.267
same,glycan array binding signal (z-score),[24],-0.168
same,glycan array binding signal (z-score),[25],-0.012
same,glycan array binding signal (z-score),[26],-0.308
same,glycan array binding signal (z-score),[27],0.214
same,glycan array binding signal (z-score),[28],-0.456
same,glycan array binding signal (z-score),[29],-0.39
same,glycan array binding signal (z-score),[30],2.61
same,glycan array binding signal (z-score),[31],0.737
same,glycan array binding signal (z-score),[32],0.752
same,glycan array binding signal (z-score),[33],0.464
same,glycan array binding signal (z-score),[34],-0.362
same,glycan array binding signal (z-score),[35],-0.454
same,glycan array binding signal (z-score),[36],-0.345
same,glycan array binding signal (z-score),[37],0.622
